Data as given in the RNAGym collection of RNA variant scans (doi:10.7554/elife.90254).
The source gives no read counts; variants with many changes may rest on few reads.

B1: LINE1-mini (parent)
chain: GGCAGAGCUCAACACAGCGUGGCAAAGUGGCUGUGGCUAGACUGCC

Variants of: B1
Assay: self-cleavage, relative activity (ratio to wild type); higher = more cleavage; in vitro, sequencing; the parent is a self-cleaving ribozyme

Variant	self-cleavage
GGCGGAGCUCACCACAGCGUGGGAAAGUGGCUGUGGCUAAACUGCC [A4G A12C C23G G40A]	0.23
GGCACAGCUCAACACAGCGUGUCUAAGUGGCUGUGGCUAGACUGCC [G5C G22U A24U]	0.03
UGCAGAGCUCAACAAAGCGUGGCAAAGUGGCUGUGACUAUACUGCC [G1U C15A G36A G40U]	0.08
GGCAGAGCUGAACACAGCGUGGUAAACUUGCUGUGGCUAGACUGCC [C10G C23U G27C G29U]	0.05
GGCAGAGCUCAACACCGCGUGGCAAAGUUGCUGUGUCUAGACUGCC [A16C G29U G36U]	0.04
GGCAGAGCUCACCUCCGCGUGGCAAAGUGGCUGUGGCUAGACUGCC [A12C A14U A16C]	0.03
GGCCGAGCUCAACGCAGCGUGGCAAAGUUGCUGUGGCUAGACUGGC [A4C A14G G29U C45G]	0.01
GGCAGAGCUCAACACAGCGUGGCAAAGUGGAUGUGGCUUGACUGAC [C31A A39U C45A]	0
GGCAUAGCUCAACACAGCGUGGCAAAGUGCCUGUGGCUCAACUGCC [G5U G30C A39C G40A]	0.03
GGCAGAAAUCAACACAGAGUAGCAAAGUGGCUUUGGCUAGACUGCC [G7A C8A C18A G21A G33U]	0.29
GGCAGAGCCAGACACAGAGUGCCAAAGUGGCUGUGGGUAGACUGAC [U9C C10A A11G C18A G22C C37G C45A]	0
GGCAAAGCUCAACACAGCGCGACAAAGUGGCUGUGGCUAAACAGCC [G5A U20C G22A G40A U43A]	0
GGCAGAGCUAAACCCAGCGUGGCAAAUUGUCUGUGGCUAGACUGCC [C10A A14C G27U G30U]	0.03
GGCAGAGCUAAACAUAGCGUGGCAAUGUGGCUGUGGCUAGACUGCC [C10A C15U A26U]	0.02
GGCAGAGCUCAAUACAGCCUGUCAAAGGGGCUGUGGCUAUACAGCC [C13U G19C G22U U28G G40U U43A]	0.03
GGCACAACUCAACACAGCGUGGGAAAGUGGCUGUGGCUAGACUGCC [G5C G7A C23G]	0.09
GGCAGAGCUCAAUACAGCGUGGCAAAGUGGUUGUGGAUAGACUGUC [C13U C31U C37A C45U]	0.02
GGCAGAGCUCAACACCGUCUGGCAAAGUGGGUGUGGCUAGACUGCC [A16C C18U G19C C31G]	0.04
GGCAGAGUUCAACACAGCGUUGCAUAGUGGCUCUGGAUAGAGUGCC [C8U G21U A25U G33C C37A C42G]	0.02

Variant	self-cleavage
GGCAGAGCUCAACAUAGCGUGGCAAAGUAGCUGUAGGUAGACUGUC [C15U G29A G35A C37G C45U]	0.04
GGCAGAGCUGAACACAGCGUGGCGAAGUGGCUAUGGCCAGACUGCG [C10G A24G G33A U38C C46G]	0
GGCAGAUCUCAAGACAGCGUGGCAAAGUGGCUGUGGUUAGACUGCC [G7U C13G C37U]	0.01
GGCACGGCUCAAUACAGCGAGGCAAAGUGGAUGUGGCUAGCCUGCC [G5C A6G C13U U20A C31A A41C]	0.02
GGCAGAGCUGAACACAGCGUGACAAAGUGGCUGUGGCUAGGCUGCC [C10G G22A A41G]	0.01
GGCAGAGCUCAUCACAGCGUGGGAAAGUGGCUGUGGCUGGACUACU [A12U C23G A39G G44A C46U]	0.02
AGCAGAGCUCAACACAGCGUGGCAAAGUGGCUGUGACUAUUCUGCC [G1A G36A G40U A41U]	0.69
GACAGAGCUCAACACGGCGUGGCAAAGUGGCUAUGGCUAGACUGAC [G2A A16G G33A C45A]	0.04
GGCAGAGCUCAACACAGCGUGGCAAUGUGUCUGCGGCUAGACUGCC [A26U G30U U34C]	0.08
GGCAGAGCUCAACACAGCGUGGAAAAGUGGCGGUGGCUAGACAGCC [C23A U32G U43A]	0.05
GGAAGAGCUCAAGACAGCGUGGCAGAGUGGCUGUGUCUAGACAGCC [C3A C13G A25G G36U U43A]	0.23
GGUACAGCUCAACACAGCGUGGCAAAGUGGCUGUGGAUAGACUCCC [C3U G5C C37A G44C]	0.28
GGCAGAGCUCAACACAGAGUGGCAACGUGUGUGUGGCUAGACUGCC [C18A A26C G30U C31G]	0.01
GGCAGCGCUCAAAACUGAGUGGCAAGGUGGCUGUGGCUAGACUGCC [A6C C13A A16U C18A A26G]	0.08
GGCAGAACUCAACACAGCGUGACAGAAUGGCUGUGGCUAGACUGCC [G7A G22A A25G G27A]	0.15
GUCAGAGCUCAACACAGCGUGGCAAAGGGGCUGUGGCUCGACUGAC [G2U U28G A39C C45A]	0.01
GGCAGAGCUCAACGCAGCGUGGCAGAGUGGCUGUGGCUAGACUUCC [A14G A25G G44U]	0.04
GGCCGAGCUCAACAGAGCGUGGCAAAGUGGCUGUGGCUAGACUGCA [A4C C15G C46A]	0.02
GGCAGAUCUCAACACAGCGUGGCAAAGUGUCUGUCGUUAGACUGCC [G7U G30U G35C C37U]	0.02

Variant	self-cleavage
GUCAGAGCUCAACACAGCGUGGCAAGGUGGCUGUUGCUAGACUGCC [G2U A26G G35U]	0.02
GGCAGAGCUCAACACAGCGAGGCAAAGUGGCUGUGGCUAGAGUGCG [U20A C42G C46G]	0.04
GGGAGAGCUCAACACAGCGUGGUAAAGUGGCUGUGGCUAGACAGCC [C3G C23U U43A]	0.16
GGCAGAGCUCAACACGGCGAGGCAAAAAGGCUGUGGCUAGAUUGCC [A16G U20A G27A U28A C42U]	0.04
CGCAGCGCUCAACACAGCGCGGCAAAGUGGCUUUGGCUAGACUGCC [G1C A6C U20C G33U]	0.02
CGCAGAGCUCAACACAGCGUGGCAACGUGGGUGAGGCUAGACUGCC [G1C A26C C31G U34A]	0.02
GGCAGAGGUCAACACAGCGUGGCAAAGUGGCGGUGCCUAGACUGCC [C8G U32G G36C]	0.01
GCCAGAGCUCAACACGCCGUGGCAAAGUGGCUGUGGCUAGACUGCC [G2C A16G G17C]	0.03
GGCAGAGCUAAACACAGCGUGUCAAAUUGGCUGUGGUUAGACUGCC [C10A G22U G27U C37U]	0.02
GGCAAAGUUGAACACAGCGUGGCAAAGUGGCUGUGGCUUGACUGCC [G5A C8U C10G A39U]	0.04
GACAGAGCUCAACACAGCGUGGCAAUGUGGCUGUGGUUAGACUGCC [G2A A26U C37U]	0.68
GGCAGAGCGCAGCACAGCGUGGCAAAGUUGAUGUGGCUAGACUGCC [U9G A12G G29U C31A]	0.02
GGCAGAGCUCCACACCGCGUGGCAAAGCGGCUGUGGCUAAACUGCC [A11C A16C U28C G40A]	0.01
GGCAGAGCUCAACACGGCGUGGCAAAGUGGCUGCGGCUAGACUGCA [A16G U34C C46A]	0.01
GGCAGACCUCAACACAACGUGGCAAAGUGGCUGUGGGGAGACUGCC [G7C G17A C37G U38G]	0.06
GGCAGACCUCAACACAGCGUGGGAAAGUGGCUGUGGCUAGACUGUC [G7C C23G C45U]	0.13
GGCAUACCUCAACACAGCCUGGCAAAGUGGCCGUGGCUAGACUGCC [G5U G7C G19C U32C]	0.11
CGCAGAGCUCAACACAGCGCGGUAAAGUGGCUGUGGCUAGACUGCC [G1C U20C C23U]	0.14
